From the supplement of paper PMC10126150
Values marked as one replicate rest on one cluster of the flow cell; about a third of the high ones do not repeat.
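Note: ATP exposure 15 min at 22 °C before imaging.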

Each sequence was assayed on ATP (assay: switch fluorescence ratio, 500 uM ATP over buffer (Cy3 cluster intensity, sum of 5 cycles each) (fold (ratio)); higher = stronger signal-on switching upon ATP binding; sequences stand for … in TCGTCGGCAGCGTCAGATGTGTATAAGAGACAGTTTTTTTTTTTTTTTTTTTTTTTTT…TC). Conditions: aptamer strand: ATP DNA aptamer (quencher-CACCTGGGGGAGTATTGCGGAGGAAGG + anchor), 100 nM annealed; ATP concentration: 500 uM; one replicate.
How it was run: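 The quencher-labelled ATP aptamer, at 100 nM, was annealed to Cy3-labelled switching-strand clusters on a modified Illumina MiSeq flow-cell. The clusters were imaged in selection buffer, then after 15 min with 500 uM ATP at 22 °C, and this buffer/ATP cycle ran five times with NaOH stripping and re-annealing between runs. Per-cluster fluorescence ratios, summed target-cycle over summed buffer-cycle Cy3 intensity, were averaged per switch-domain sequence. Clusters outside 100-1000 RFU were excluded.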
AGAGGCATGG showed a switch fluorescence ratio of 1.02. AGAGGCGCAT gave a switch fluorescence ratio of 1. With AGAGGCTAGT the switch fluorescence ratio was 1. Sequence AGAGGGAGGG has a switch fluorescence ratio of 0.998. AGAGGGGTGT was tested, and the switch fluorescence ratio was 1.07. In the case of AGAGGGTTCA, the switch fluorescence ratio is reported as 1.01. AGAGGGTTT showed a switch fluorescence ratio of 1.01. Sequence AGAGGTCTAA has a switch fluorescence ratio of 0.965. Work on AGAGTCTTCT yielded a switch fluorescence ratio of 0.972. AGAGTGCATC was tested, and the switch fluorescence ratio was 0.968. AGAGTGGTAA showed a switch fluorescence ratio of 1.02. Sequence AGAGTGTATT has a switch fluorescence ratio of 0.998. AGATAAATAG showed a switch fluorescence ratio of 1.03. AGATAAGAAA gave a switch fluorescence ratio of 1.03. AGATACCCGG gave a switch fluorescence ratio of 1.03. Sequence AGATACGCTG has a switch fluorescence ratio of 0.956. AGATACTGCG showed a switch fluorescence ratio of 1.06. AGATAGAAGA showed a switch fluorescence ratio of 0.97. Sequence AGATAGACGG has a switch fluorescence ratio of 1.02. In the case of AGATAGGGGC, the switch fluorescence ratio is reported as 1.01. AGATATGCCC was tested, and the switch fluorescence ratio was 1. Sequence AGATCCGGAC has a switch fluorescence ratio of 0.958. Sequence AGATCGACGT has a switch fluorescence ratio of 0.957. With AGATCTGAGT the switch fluorescence ratio was 0.978. AGATCTGGG showed a switch fluorescence ratio of 1.09. Sequence AGATGAATCC has a switch fluorescence ratio of 0.957. Work on AGATGACAGC yielded a switch fluorescence ratio of 0.966. AGATGCTGAG gave a switch fluorescence ratio of 1. For AGATGCTGGA, the switch fluorescence ratio was 1.01. AGATGGACGG gave a switch fluorescence ratio of 1.01. For AGATGGCACC, the switch fluorescence ratio was 1.04. For AGATGGTATA, the switch fluorescence ratio was 0.974. AGATGTATGA showed a switch fluorescence ratio of 0.979. For AGATTCTGAC, the switch fluorescence ratio was 1. In the case of AGATTCTGG, the switch fluorescence ratio is reported as 0.961. In the case of AGATTCTGTG, the switch fluorescence ratio is reported as 1.01. With AGATTGAGGC the switch fluorescence ratio was 1.01. AGATTGATAC gave a switch fluorescence ratio of 1.05. Sequence AGATTGGCAG has a switch fluorescence ratio of 0.97. Work on AGATTGGGAT yielded a switch fluorescence ratio of 1. With AGATTTATTC the switch fluorescence ratio was 1.01. In the case of AGATTTGAGT, the switch fluorescence ratio is reported as 0.988. With AGCAAACGAT the switch fluorescence ratio was 1.05. For AGCAAGTAAC, the switch fluorescence ratio was 1.95. Sequence AGCAAGTGCA has a switch fluorescence ratio of 1.03. With AGCAATATTT the switch fluorescence ratio was 1.96. AGCACGAACG showed a switch fluorescence ratio of 1.19. AGCACGGGCT showed a switch fluorescence ratio of 0.953. AGCACGGTTT showed a switch fluorescence ratio of 1.01. Sequence AGCACTCGGC has a switch fluorescence ratio of 1.04. With AGCAGAATAT the switch fluorescence ratio was 1.02. AGCAGACTTC showed a switch fluorescence ratio of 1.07. Work on AGCAGATCGA yielded a switch fluorescence ratio of 1.13. Sequence AGCAGATTAA has a switch fluorescence ratio of 0.992. AGCAGATTTT was tested, and the switch fluorescence ratio was 1.06. For AGCAGCCAGA, the switch fluorescence ratio was 0.98. Sequence AGCAGCCTGC has a switch fluorescence ratio of 0.969. For AGCAGGATTT, the switch fluorescence ratio was 0.987. Sequence AGCAGTGGAA has a switch fluorescence ratio of 1.02. AGCAGTGGTG was tested, and the switch fluorescence ratio was 1.04. Work on AGCAGTTAAA yielded a switch fluorescence ratio of 0.978. AGCAGTTGGT gave a switch fluorescence ratio of 1.02. In the case of AGCATACCCC, the switch fluorescence ratio is reported as 2.77. AGCATCAATG gave a switch fluorescence ratio of 1.06. AGCATCAGGT showed a switch fluorescence ratio of 1. AGCATCGCGA showed a switch fluorescence ratio of 1.09. In the case of AGCATCTTGT, the switch fluorescence ratio is reported as 0.969. With AGCATGAGTT the switch fluorescence ratio was 1.02. Work on AGCATGTAAA yielded a switch fluorescence ratio of 0.985. AGCCACAAGG was tested, and the switch fluorescence ratio was 1.07. AGCCAGAGCA showed a switch fluorescence ratio of 1.04. AGCCAGCG showed a switch fluorescence ratio of 1.03. Work on AGCCCAGGA yielded a switch fluorescence ratio of 0.984. AGCCCATGCG was tested, and the switch fluorescence ratio was 0.945. Work on AGCCCGCTGT yielded a switch fluorescence ratio of 1.09. For AGCCCGTATC, the switch fluorescence ratio was 1.03. With AGCCGACGTA the switch fluorescence ratio was 1.02. For AGCCGATCAA, the switch fluorescence ratio was 1.02. In the case of AGCCGCTTGA, the switch fluorescence ratio is reported as 1.06. Sequence AGCCGTCACA has a switch fluorescence ratio of 0.982. In the case of AGCCGTTGCC, the switch fluorescence ratio is reported as 0.983. In the case of AGCCTAAGA, the switch fluorescence ratio is reported as 0.971. Sequence AGCCTAATGA has a switch fluorescence ratio of 0.97. With AGCCTAGCTC the switch fluorescence ratio was 1.01. Sequence AGCCTATCA has a switch fluorescence ratio of 1.03.
